From paper PMC12820563 come the findings set out here.

The list shows a part of the results. The list includes weakly bound sequences.

The assay addresses T1, MBP-FoxP3dN (UniProt Q99JB6).
T1 sequence: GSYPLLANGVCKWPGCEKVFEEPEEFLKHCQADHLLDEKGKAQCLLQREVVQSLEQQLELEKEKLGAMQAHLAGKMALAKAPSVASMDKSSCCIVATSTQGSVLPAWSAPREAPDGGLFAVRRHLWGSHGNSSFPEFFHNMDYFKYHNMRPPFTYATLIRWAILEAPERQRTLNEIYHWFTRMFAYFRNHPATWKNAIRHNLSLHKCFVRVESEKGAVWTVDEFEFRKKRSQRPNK
Kind of assay: PD-seq (MBP pull-down with sequencing). To be noted: 20 mM Tris-HCl pH 7.5, 100 mM NaCl, 1.5 mM MgCl2, 0.4 uM protein, 0.1 uM dsDNA library, 30 min, room temperature, amylose pull-down; high values mean tight binding; double strand, one strand shown.
With “GATGATTGTTCTCCCAGCTGATGAATTAGCTGGGTCGAGTAAACAAATTTTCCTAATCTTTCTGTTCAAGCGCCATCTAC”, the binding signal (RPM ratio (pull-down/input)) turned out to be 0.536.
For “GATGATTGTTCTCCCAGCTGATGAATTTCTCTATTCGAGTAAACAAATTTTCCTAATCTTTCTGTTCAAGCGCCATCTAC”, the binding signal (RPM ratio (pull-down/input)) amounted to 0.288.
With “GATGATTGTTCTCCCAGCTGATGAATTAAACTATTCGAGTAAACAAATTTTCCTAATCTTTCTGTTCAAGCGCCATCTAC” the figure was 0.397; with “GATGATTGTTCTCCCAGCTGATGAATTACAGGTATCGAGTAAACAAATTTTCCTAATCTTTCTGTTCAAGCGCCATCTAC”, 0.685.
“GATGATTGTTCTCCCAGCTGATGAATTATACTTTTCGAGTAAACAAATTTTCCTAATCTTTCTGTTCAAGCGCCATCTAC”: the binding signal (RPM ratio (pull-down/input)) was determined as 0.642.
On to “GATGATTGTTCTCCCAGCTGATGAATTCAGTCCGTCGAGTAAACAAATTTTCCTAATCTTTCTGTTCAAGCGCCATCTAC”, for which the binding signal (RPM ratio (pull-down/input)) was found to be 0.297.
Regarding “GATGATTGTTCTCCCAGCTGATGAATTGCGGCCATCGAGTAAACAAATTTTCCTAATCTTTCTGTTCAAGCGCCATCTAC”, the binding signal (RPM ratio (pull-down/input)) was 1.87.
With “GATGATTGTTCTCCCAGCTGATGAATTGGATCCATCGAGTAAACAAATTTTCCTAATCTTTCTGTTCAAGCGCCATCTAC”, the binding signal (RPM ratio (pull-down/input)) was 0.271.
With “GATGATTGTTCTCCCAGCTGATGAATTAGAAAATTCGAGTAAACAAATTTTCCTAATCTTTCTGTTCAAGCGCCATCTAC” the figure was 0.201; with “GATGATTGTTCTCCCAGCTGATGAATTGATGAGGTCGAGTAAACAAATTTTCCTAATCTTTCTGTTCAAGCGCCATCTAC”, 0.293.
As for “GATGATTGTTCTCCCAGCTGATGAATTCGATGATTCGAGTAAACAAATTTTCCTAATCTTTCTGTTCAAGCGCCATCTAC”, the binding signal (RPM ratio (pull-down/input)) is 1.19.
With “GATGATTGTTCTCCCAGCTGATGAATTGAATCTATCGAGTAAACAAATTTTCCTAATCTTTCTGTTCAAGCGCCATCTAC” the figure was 0.484; with “GATGATTGTTCTCCCAGCTGATGAATTCAACGTGTCGAGTAAACAAATTTTCCTAATCTTTCTGTTCAAGCGCCATCTAC”, 0.613; with “GATGATTGTTCTCCCAGCTGATGAATTGTCACCTTCGAGTAAACAAATTTTCCTAATCTTTCTGTTCAAGCGCCATCTAC”, 0.583.
Consider “GATGATTGTTCTCCCAGCTGATGAATTCGATGGATCGAGTAAACAAATTTTCCTAATCTTTCTGTTCAAGCGCCATCTAC”, for which the binding signal (RPM ratio (pull-down/input)) was 0.402.
With “GATGATTGTTCTCCCAGCTGATGAATTTATACGTTCGAGTAAACAAATTTTCCTAATCTTTCTGTTCAAGCGCCATCTAC” the figure was 0.886.
For the sequence “GATGATTGTTCTCCCAGCTGATGAATTGCTCGCATCGAGTAAACAAATTTTCCTAATCTTTCTGTTCAAGCGCCATCTAC”, the binding signal (RPM ratio (pull-down/input)) was found to be 1.17.
With “GATGATTGTTCTCCCAGCTGATGAATTCAGTAACTCGAGTAAACAAATTTTCCTAATCTTTCTGTTCAAGCGCCATCTAC”, the binding signal (RPM ratio (pull-down/input)) turned out to be 1.34.
As to “GATGATTGTTCTCCCAGCTGATGAATTTTCCAACTCGAGTAAACAAATTTTCCTAATCTTTCTGTTCAAGCGCCATCTAC”, the binding signal (RPM ratio (pull-down/input)) was found to be 0.228.
With “GATGATTGTTCTCCCAGCTGATGAATTCTATGAATCGAGTAAACAAATTTTCCTAATCTTTCTGTTCAAGCGCCATCTAC”, the binding signal (RPM ratio (pull-down/input)) is 0.343.
The same measure for “GATGATTGTTCTCCCAGCTGATGAATTTGCTGACTCGAGTAAACAAATTTTCCTAATCTTTCTGTTCAAGCGCCATCTAC”: 5.1.
Regarding “GATGATTGTTCTCCCAGCTGATGAATTGCTCCATTCGAGTAAACAAATTTTCCTAATCTTTCTGTTCAAGCGCCATCTAC”, the binding signal (RPM ratio (pull-down/input)) stood at 0.543.
Regarding “GATGATTGTTCTCCCAGCTGATGAATTTCATCGCTCGAGTAAACAAATTTTCCTAATCTTTCTGTTCAAGCGCCATCTAC”, the binding signal (RPM ratio (pull-down/input)) was 0.368.
Consider “GATGATTGTTCTCCCAGCTGATGAATTCCTGGTATCGAGTAAACAAATTTTCCTAATCTTTCTGTTCAAGCGCCATCTAC”, for which the binding signal (RPM ratio (pull-down/input)) was found to be 0.355.
For “GATGATTGTTCTCCCAGCTGATGAATTCACATCATCGAGTAAACAAATTTTCCTAATCTTTCTGTTCAAGCGCCATCTAC”, the binding signal (RPM ratio (pull-down/input)) was 0.714.
For “GATGATTGTTCTCCCAGCTGATGAATTGACTGCCTCGAGTAAACAAATTTTCCTAATCTTTCTGTTCAAGCGCCATCTAC”, the binding signal (RPM ratio (pull-down/input)) turned out to be 0.474.
For the sequence “GATGATTGTTCTCCCAGCTGATGAATTCCTGCACTCGAGTAAACAAATTTTCCTAATCTTTCTGTTCAAGCGCCATCTAC”, the binding signal (RPM ratio (pull-down/input)) is 0.472.
On to “GATGATTGTTCTCCCAGCTGATGAATTCTCCTCATCGAGTAAACAAATTTTCCTAATCTTTCTGTTCAAGCGCCATCTAC”, for which the binding signal (RPM ratio (pull-down/input)) was 0.261.
In the case of “GATGATTGTTCTCCCAGCTGATGAATTCCAACTTTCGAGTAAACAAATTTTCCTAATCTTTCTGTTCAAGCGCCATCTAC”, the binding signal (RPM ratio (pull-down/input)) was 0.395.
The same measure for “GATGATTGTTCTCCCAGCTGATGAATTGAGCCACTCGAGTAAACAAATTTTCCTAATCTTTCTGTTCAAGCGCCATCTAC”: 4.76.
Turning to “GATGATTGTTCTCCCAGCTGATGAATTCGAGATCTCGAGTAAACAAATTTTCCTAATCTTTCTGTTCAAGCGCCATCTAC”, the binding signal (RPM ratio (pull-down/input)) turned out to be 0.276.
For “GATGATTGTTCTCCCAGCTGATGAATTTTGGCGCTCGAGTAAACAAATTTTCCTAATCTTTCTGTTCAAGCGCCATCTAC”, the binding signal (RPM ratio (pull-down/input)) amounted to 0.474.
Turning to “GATGATTGTTCTCCCAGCTGATGAATTTCGATTATCGAGTAAACAAATTTTCCTAATCTTTCTGTTCAAGCGCCATCTAC”, the binding signal (RPM ratio (pull-down/input)) stood at 2.02.
With “GATGATTGTTCTCCCAGCTGATGAATTTTACCCGTCGAGTAAACAAATTTTCCTAATCTTTCTGTTCAAGCGCCATCTAC”, the binding signal (RPM ratio (pull-down/input)) was determined as 0.21.
In the case of “GATGATTGTTCTCCCAGCTGATGAATTGCCACTGTCGAGTAAACAAATTTTCCTAATCTTTCTGTTCAAGCGCCATCTAC”, the binding signal (RPM ratio (pull-down/input)) worked out at 1.22.
The same measure for “GATGATTGTTCTCCCAGCTGATGAATTTACGCCTTCGAGTAAACAAATTTTCCTAATCTTTCTGTTCAAGCGCCATCTAC”: 2.92; for “GATGATTGTTCTCCCAGCTGATGAATTATACAAGTCGAGTAAACAAATTTTCCTAATCTTTCTGTTCAAGCGCCATCTAC”: 0.571; for “GATGATTGTTCTCCCAGCTGATGAATTCAGAGGATCGAGTAAACAAATTTTCCTAATCTTTCTGTTCAAGCGCCATCTAC”: 0.205.
With “GATGATTGTTCTCCCAGCTGATGAATTTCGACTCTCGAGTAAACAAATTTTCCTAATCTTTCTGTTCAAGCGCCATCTAC”, the binding signal (RPM ratio (pull-down/input)) is 1.85.
As to “GATGATTGTTCTCCCAGCTGATGAATTGCCTCAATCGAGTAAACAAATTTTCCTAATCTTTCTGTTCAAGCGCCATCTAC”, the binding signal (RPM ratio (pull-down/input)) was determined as 0.734.
